# Screen size: about 110,000 compounds; about 230 (0.21%) showed an effect of 50% or more. The list shows a part of the results.
# Molecular target: DPAP1 (Plasmodium falciparum, UniProt Q8IIJ9)
# Test: primary screen, percent inhibition; read by cleavage of a fluorogenic dipeptide substrate; higher = more effect of the substance
# Parameters: species or system P. falciparum D10 trophozoite lysates; single well
# 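Further: 30 min substrate incubation versus DMSO and 10 µM JCP410 controls.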
# Sequence of DPAP1 (Q8IIJ9 whole entry, looked up): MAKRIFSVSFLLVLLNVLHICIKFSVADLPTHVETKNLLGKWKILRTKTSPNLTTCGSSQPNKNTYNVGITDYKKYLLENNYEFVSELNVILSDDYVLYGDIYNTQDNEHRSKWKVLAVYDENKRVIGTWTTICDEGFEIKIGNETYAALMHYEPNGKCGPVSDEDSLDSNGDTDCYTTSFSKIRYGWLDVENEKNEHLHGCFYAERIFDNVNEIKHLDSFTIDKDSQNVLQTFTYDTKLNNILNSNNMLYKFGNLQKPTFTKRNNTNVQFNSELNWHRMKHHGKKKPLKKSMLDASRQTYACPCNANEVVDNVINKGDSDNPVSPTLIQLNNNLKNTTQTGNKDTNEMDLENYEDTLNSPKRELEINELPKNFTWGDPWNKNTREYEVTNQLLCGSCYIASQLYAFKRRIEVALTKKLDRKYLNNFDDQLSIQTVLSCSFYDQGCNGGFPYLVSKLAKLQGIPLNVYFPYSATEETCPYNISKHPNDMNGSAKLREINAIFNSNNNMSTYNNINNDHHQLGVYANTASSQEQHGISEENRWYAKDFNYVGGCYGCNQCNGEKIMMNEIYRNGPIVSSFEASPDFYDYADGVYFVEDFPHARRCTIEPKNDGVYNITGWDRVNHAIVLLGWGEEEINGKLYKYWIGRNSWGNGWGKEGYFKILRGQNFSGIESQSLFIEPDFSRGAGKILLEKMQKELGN
row,Structure (SMILES),% Inhibition @ 10 uM [%]
1,C[C@@H](C[C@H](NC(=O)c1ccc(-c2ccccc2Cl)nc1)C(=O)NC1(C#N)CCOCC1)c1ccccc1,1.61
2,COc1ccc(-c2csc(/C(C#N)=C\Nc3ccccc3Cl)n2)cc1,4.39
3,COc1ccc(CCNc2nc(SCC(=O)c3ccc(O)c(O)c3)nc3ccccc23)cc1OC,4.96
4,COc1cccc(-c2coc3c2c(C)cc2oc(=O)cc(C)c23)c1,2.21
5,Clc1ccccc1C1CC(c2cccs2)Nc2ncnn21 (centres unmarked),6.17
6,CCOc1ccc(NC(=O)COc2ccccc2C)cc1,2.64
7,CCC1C(=O)NC(=O)N1c1ccccc1 (centres unmarked),-3.92
8,Cc1c(NC(=O)c2cc3ccccc3cc2O)cccc1NC(=O)c1cc2ccccc2cc1O,-0.261
9,COc1ccc(C(=O)N(CCN(C)C)c2nc3c(Cl)cccc3s2)cc1OC,0.434
10,CCc1nn(CC(=O)O)c(=O)c2cc3cc(F)ccc3n12,23.1
11,O=C(CNC(=S)N(Cc1ccccc1)Cc1ccccc1F)NCC1CCCO1 (centres unmarked),1.27
12,CCn1c2ccccc2c2cc(CN3CCSCC3)ccc21,2.47
13,Oc1cc(-c2ccccc2)nc2cc(-c3ccccc3)nn12,-4.32
14,CC(C)OCCCNC(=O)CN1C(=O)CSc2ncccc21,-4.15
15,COc1cccc(NC(=O)C2c3ccccc3Oc3ccccc32)c1,4.32
16,COc1ccccc1CC(=N)NOC(=O)Cc1ccc(Cl)cc1,-5.08
17,O=C(CCc1ccccc1)Nc1cccc(F)c1,-1.29
18,CC(C)Oc1ccc(NC(=O)c2ccc([N+](=O)[O-])cc2)cc1,0.00178
19,Cc1nn(Cc2ccc(C(=O)NCc3ccccc3)o2)c(C)c1Cl,-0.725
20,Cc1cc(O)c(C2=NCCSC(c3cccc(Br)c3)C2)c(=O)o1 (centres unmarked),1.45
21,Cc1ccccc1S(=O)(=O)NC(=O)NC1CCCCC1,-2.77
22,O=C(CSc1nnc(CNC(=O)c2cccs2)o1)c1ccccc1,-3.39
23,CCS(=O)(=O)N1CCC2(CC1)OC(=O)C(C)=C2C(=O)NCCC(C)C,2.39
24,COc1ccc(CCN2C(=O)c3cccc4cccc(c34)C2=O)cc1OC,5.46
25,COCCCNC(=O)C1CCCN(Cc2cnn(-c3ccccc3)c2-n2cccc2)C1 (centres unmarked),5.42
26,Cc1ccccc1C(=O)c1cccn1CC(=O)NC(C)C,-2.25
27,Cc1ccc(NCc2nc3ccccc3n2C)cc1,-1.66
28,Cc1nnc(SCC#CCOC(=O)c2ccc(Br)cc2)s1,-1.33
29,Cc1ccc(CS(=O)(=O)Cc2ccc(C(=O)NCCCN3CC(C)CC(C)C3)o2)cc1 (centres unmarked),3.59

# Source: PMC6919601, “Identification of Plasmodium dipeptidyl aminopeptidase allosteric inhibitors by high throughput screening” (PLoS ONE, 2019)
